Measured values published in ChEMBL document CHEMBL1201862, “PubChem BioAssay data set” (2004).
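Following 48 hours of exposure in 96-well plates, responses at five concentrations were used to interpolate endpoints linearly. Here, GI50 denotes the concentration required for 50% inhibition of growth.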 Activity calls are given as the source filed them. No stated cut-off is given here; in the data, active = GI50 up to about 1.1 µM and inactive = higher.

These molecules were tested on NCI-H322M (assay: NCI-60 cell line screen, 48 h).

Structure (SMILES)	GI50
CCOC(=O)c1sc2nc1CSc1sc(=S)sc1SCc1nc(sc1C(=O)OCC)-c1nc(c(C(=O)OCC)s1)CSc1sc(=S)sc1SCc1nc-2sc1C(=O)OCC	inactive: > 10 µM
N#CSC#Cc1ccc(C#CSC#N)cc1	inactive: 45 µM
CC(=O)N1c2ccccc2C23CCN(C)CC4C(C)OCC(C4CC2=O)C13 (centres undefined)	inactive: > 100 µM
COc1ccccc1NC(=S)N/N=C/c1c(C)n(C)n(-c2ccccc2)c1=O	inactive: > 100 µM
COc1ccc(OC)c(CC2CCc3nc(N)nc(N)c3C2)c1 (centres undefined)	inactive: 3.13 µM
O=C(CN1C(=O)c2ccccc2C1=O)NC1(C(=O)O)CCCC1	inactive: > 100 µM
O=S(=O)(CF)OCCCCOS(=O)(=O)CF	inactive: > 100 µM
C=C1C2C[C@@H]3O[C@H]4C[C@H]5O[C@@]6(C[C@@H]7O[C@]8(C[C@H](C)[C@@H]9O[C@@H]%10CC(CO)O[C@@H]%10C[C@@H]9O8)C[C@H](C)[C@@H]7O6)C[C@H]5O[C@H]4[C@H](C)[C@H]3OC(=O)C[C@H]3CC[C@@H]4OC5[C@H]6O[C@]7(CC[C@H]8CC(=C)[C@H](CC[C@@H](C[C@H]1C)O2)O8)CC6O[C@@H]5[C@@H](O7)[C@H]4O3 (some centres undefined)	active: < 0.0001 µM
CN1CCN(CCCCN2c3ccccc3Sc3ccc(N=[N+]=[N-])cc32)CC1	inactive: 5.53 µM
CC(=N\N=C\c1ccccn1)/C(C)=N/N=C(C)/C(C)=N/N=C(C)/C(C)=N/N=C/c1ccccn1	inactive: > 100 µM
COc1ccc(OC)c2c(C(=O)O)c(C(C)c3ccccc3)ccc12 (centres undefined)	inactive: > 100 µM
Cc1cn([C@H]2C[C@H](N=[N+]=[N-])[C@@H](CO)O2)c(=O)[nH]c1=O [ZIDOVUDINE]	inactive: 99.8 µM
CCOc1ccc(/N=C\c2ccc3cc(C)ccc3n2)cc1	inactive: > 100 µM
C=C(C)[C@H]1CC(=O)[C@@]2(C)C[C@H]3O[C@]3(C)CC/C=C(\C)CC[C@H]12	inactive: 73.6 µM
CC(=O)O[C@]1(C)OC(=O)[C@@H](C)N1[N+](=O)[O-]	inactive: > 100 µM
Oc1ccc(Cc2cc(Cc3ccc(O)cc3)cc(Cc3ccc(O)cc3)c2)cc1	inactive: > 50 µM
COc1ccc(C(=O)C(CC2C(=O)CC(C)(C)C(C(=O)C(=O)Nc3c(C)cccc3C)C2=O)c2ccc(OC)cc2)cc1 (centres undefined)	inactive: > 100 µM

Structure (SMILES)	GI50
C/C(=C\CBr)CCC(Br)C(C)(C)Cl (centres undefined)	inactive: > 100 µM
CC1(C)OC[C@H](C(=N)OCc2ccccc2)O1	inactive: > 100 µM
Cn1c(C2CCCc3c2c2ccccc2n3C)cc2ccccc21 (centres undefined)	inactive: > 318 µM
CCOP(=O)(C/C(O)=C1\C(=O)C(CCCNC(=O)OC(C)(C)C)N(Cc2ccc(OC)c(OC)c2)C1=O)OCC (centres undefined)	inactive: > 100 µM
CCOC(=O)/C(=C/c1ccc(N(C)C)cc1)N(CC)CC	inactive: > 100 µM
C/C(=N\NC(=S)N1CCN(c2ccccn2)CC1)c1nccs1	active: 0.925 µM
COc1ccc(C(=O)N(C(=S)OCCOc2ccccc2)c2ccccc2)cc1	inactive: 53.5 µM
Clc1nc2c(N3CCCC3)nc(N3CCNCC3)nc2[nH]1	inactive: 16.2 µM
CN(C)C(=S)Oc1ccc2ccc(=O)oc2c1	inactive: > 100 µM
O=C1CSC(/C(=C/c2ccccc2)c2nc3ccccc3[nH]2)=N1	inactive: 60.3 µM
Nc1nc(NC2C=C(CO)C(O)C2O)c([N+](=O)[O-])c(=O)[nH]1 (centres undefined)	inactive: > 100 µM
COC(=O)/C(=N\NC(N)=O)C(C(=O)C(=O)Nc1ccccc1OC)c1nc2ccc([N+](=O)[O-])cc2nc1O (centres undefined)	inactive: > 100 µM
NS(=O)(=O)c1nnc(NSc2ccc([N+](=O)[O-])cc2)s1	inactive: > 100 µM
c1ccc2c(c1)nc1n2CNC1	inactive: > 100 µM
CCOC(=O)CC1=CSC2=NCCN12	inactive: > 100 µM
Cc1cc2c(C)n(Cc3ccc(Cl)cc3Cl)nc2c(C#N)c1C	inactive: 80.7 µM
COc1ccc(C(Cl)=C(c2ccc(OCCN(C)C)cc2)c2ccc(OCCN(C)C)cc2)cc1	inactive: 2.65 µM
